About 1,100 (0.3%) of roughly 370,000 compounds were called active. Inconclusive results, whose numbers are uncertain, are shown with a selection of clear calls. Calls come from the whole dose curve; as a rule, active = well fitted activation curve with a large enough effect; inconclusive = small, poorly fitted or top-dose-only effect; inactive = flat fitted curve, though single readings scatter. A potency beside an inconclusive call is a rough fit, not a confirmed value.
Target: Relaxin receptor 1 (Homo sapiens) (UniProt Q9HBX9)
Sequence of UniProt Q9HBX9 (Q9HBX9 whole entry, looked up): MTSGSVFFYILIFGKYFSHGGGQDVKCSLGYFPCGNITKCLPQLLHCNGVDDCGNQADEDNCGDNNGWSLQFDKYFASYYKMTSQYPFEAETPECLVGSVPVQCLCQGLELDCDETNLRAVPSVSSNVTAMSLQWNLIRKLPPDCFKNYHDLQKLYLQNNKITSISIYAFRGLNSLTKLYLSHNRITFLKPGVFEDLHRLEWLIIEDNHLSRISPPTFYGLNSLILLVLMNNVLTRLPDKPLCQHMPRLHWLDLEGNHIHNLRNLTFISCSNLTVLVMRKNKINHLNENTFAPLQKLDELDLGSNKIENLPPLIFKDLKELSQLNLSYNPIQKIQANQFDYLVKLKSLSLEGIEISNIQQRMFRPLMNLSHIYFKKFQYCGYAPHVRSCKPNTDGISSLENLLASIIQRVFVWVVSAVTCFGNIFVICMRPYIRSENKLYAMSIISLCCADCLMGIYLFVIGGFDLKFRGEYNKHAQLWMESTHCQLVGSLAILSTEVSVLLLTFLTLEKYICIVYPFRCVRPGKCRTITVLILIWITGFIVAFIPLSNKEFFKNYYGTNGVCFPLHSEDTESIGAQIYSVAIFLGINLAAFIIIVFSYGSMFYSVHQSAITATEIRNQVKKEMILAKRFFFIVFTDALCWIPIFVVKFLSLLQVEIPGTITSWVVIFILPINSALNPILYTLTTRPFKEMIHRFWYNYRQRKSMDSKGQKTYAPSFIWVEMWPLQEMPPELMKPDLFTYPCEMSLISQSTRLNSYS
Test: qHTS Assay for Agonists of the Relaxin Receptor RXFP1; note: nearly all actives have a fitted effect of over 60% in size
Conditions: HEK293T-RXFP1 cAMP TR-FRET, 30 min; series mostly up to 57.5 µM
Method in brief: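 cAMP rise read by TR-FRET after 30 min, 37C compound exposure (up to 58 uM) in RXFP1-transfected HEK293 cells with Ro 20174 present. EC50 from Hill-equation fits, with 29 nM porcine relaxin as 100% and buffer as basal.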
Potency is the fitted concentration of half-maximal effect; tags give direction and shape of the fitted curve.

Row | Compound | Potency
1 | CCOC(=O)c1ccc(NC(=O)CSc2ccc(-c3ccncc3)nn2)cc1 | inconclusive: 35.5 µM [activator, single point]
2 | COc1ccc(-c2nnc3sc(CN4C(=O)c5ccccc5C4=O)nn23)cc1 | inconclusive: 39.8 µM [activator, single point]
3 | O=C(c1ccc(S(=O)(=O)Nc2ccccc2F)cc1)N1CCC1 | inconclusive: 14.1 µM [activator, partial curve]
4 | Cc1nnc2sc(SCC(=O)N3CCC(C)CC3)nn2c1=O | inconclusive: 15.8 µM [activator, partial curve]
5 | Cc1cc(NCCCO)n2c(nc3ccccc32)c1C#N | inactive
6 | Cn1ncc(Cl)c1C(=O)N1CCN(S(=O)(=O)c2ccc(F)cc2)CC1 | inactive
7 | Cc1ccc(OCC(=O)OCc2cc(=O)n3nc(-c4cccs4)sc3n2)cc1 | inconclusive: 39.8 µM [activator, single point]
8 | Cc1ccc(NC(=O)CSc2ncnc3c2sc2ccccc23)cc1C | inconclusive: 39.8 µM [activator, single point]
9 | COc1ccc(Cn2c(SCc3ccc(C(=O)NCCc4ccccc4)cc3)nc3cccnc32)cc1 | inconclusive: 35.5 µM [activator, partial curve]
10 | CS(=O)(=O)c1ccccc1-c1nnc(NC(=O)c2cccc(N3C(=O)CCC3=O)c2)o1 | inactive
11 | CC1CCN(C(=O)CCc2nnc3ccc(NCCCN4CCCC4=O)nn23)CC1 | inconclusive: 14.1 µM [activator, partial curve]
12 | Cc1c(C(=O)Nc2ccc(Br)cc2F)sc2ncnc(N(C)C3CCCCC3)c12 | inconclusive: 3.16 µM [activator, full curve]
13 | O=c1oc2cc(O)c(Cl)cc2c2ccccc12 | active: 11.2 µM
14 | CCCCCNC(=O)c1ccc2c(=O)n(CCCOCC)c(=S)[nH]c2c1 | inconclusive: 25.1 µM [activator, single point]
15 | Cc1ccc(NC(=O)c2cnc(SCC(=O)Nc3cc(C)on3)n(C)c2=O)cc1 | inconclusive: 39.8 µM [activator, single point]
16 | CCCc1nc(SCC(=O)Nc2nnc(CC)s2)c2c(=O)n(C)c(=O)n(C)c2n1 | inconclusive: 6.31 µM [activator, partial curve]
17 | Cc1ccc(C2NC(=O)NC3=C2CCc2ccccc23)cc1 (stereo not given) | inactive
18 | COC(=O)c1ccc(NC(=O)CCc2c(C)nc3c(c2C)c(=O)n(C)c(=O)n3C)cc1 | inconclusive: 39.8 µM [activator, single point]
19 | CC(C)OCCCN1CN(S(=O)(=O)c2cccs2)c2nc3ccccc3nc21 | inconclusive: 17.8 µM [activator, partial curve]
20 | Cc1ccc(S(=O)(=O)c2cn(Cc3ccc(F)cc3)c3cc(F)c(F)cc3c2=O)cc1 | inconclusive: 35.5 µM [activator, single point]
21 | CCCCn1c(SCC(=O)Nc2cc(C)on2)nc2ccsc2c1=O | inconclusive: 39.8 µM [activator, single point]
22 | Cc1cccc(NC(=O)c2cc(NC(=O)c3ccco3)ccc2N2CCCCC2)c1 | inconclusive: 35.5 µM [activator, single point]

Row | Compound | Potency
23 | COc1ccc(S(=O)(=O)N2CCCCC2)cc1NC(=O)c1cncc(Br)c1 | inconclusive: 35.5 µM [activator, single point]
24 | O=C(Nc1ccccc1F)c1oc2ccccc2c1NC(=O)C1CC1 | inconclusive: 25.1 µM [activator, single point]
25 | O=C(Nc1ccc(F)cc1F)c1ccco1 | inactive
26 | COc1cccc(CNC(=O)c2cc3c(=O)n(C)c4ccccc4c3n2C)c1 | inconclusive: 35.5 µM [activator, single point]
27 | O=C(CCCn1c(=O)c2sccc2n(Cc2ccc(F)cc2Cl)c1=O)NCc1ccc2c(c1)OCO2 | inconclusive: 31.6 µM [activator, single point]
28 | COc1ccc(-c2nnc(NC(=O)C(C)C)s2)c(OC)c1 | inconclusive: 35.5 µM [activator, single point]
29 | COc1ccc(C(=O)Nc2ccccc2C(=O)Nc2cccc(C)n2)cc1 | inconclusive: 39.8 µM [activator, single point]
30 | CC(=O)c1sc(NC(=O)c2cccc(N3C(=O)CCC3=O)c2)nc1-c1ccccc1 | inconclusive: 31.6 µM [activator, single point]
31 | COc1ccc2nc(NC(=O)CSc3nc4ccccc4o3)sc2c1 | inconclusive: 35.5 µM [activator, single point]
32 | Cc1ccc(NC(=O)CN(C)C(=O)COc2ncnc3ccc(Br)cc23)cc1 | inconclusive: 35.5 µM [activator, single point]
33 | CCOC(=O)c1c(NC(=O)CSc2cn(CCNC(=O)c3ccccc3OC)c3ccccc23)sc2c1CCC2 | inactive
34 | Cn1c(N)c(C(=O)COC(=O)c2ccnc3ccccc23)c(=O)n(C)c1=O | inconclusive: 31.6 µM [activator, single point]
35 | CC(C)c1ccc(N(C(=O)c2snc(C(N)=O)c2N)C(C(=O)NCC2CCCO2)c2ccc(N(C)C)cc2)cc1 (stereo not given) | inconclusive: 39.8 µM [activator, single point]
36 | O=C(Nc1ccc(C(=O)NC2CCCCC2)cc1)c1cncc(Br)c1 | inconclusive: 31.6 µM [activator, single point]
37 | CCOc1ccc(-n2c(SCC(=O)NC(C)CC)nc3n[nH]c(C)c3c2=N)cc1 (stereo not given) | inconclusive: 39.8 µM [activator, single point]
38 | Cc1ccc2nc(SCC(=O)N3CCN(c4ccccc4)CC3)nc(=O)n2c1 | inconclusive: 28.2 µM [activator, partial curve]
39 | Cc1nn(CC(=O)Nc2cc(F)ccc2F)c(=O)c2cccn12 | inconclusive: 35.5 µM [activator, single point]
40 | N#Cc1ccc(CSc2nnc(NC(=O)c3ccc4ncsc4c3)s2)cc1 | inconclusive: 39.8 µM [activator, single point]
41 | Fc1ccc(-n2c(-c3cccs3)nc3nc4ccccc4nc32)cc1 | inconclusive: 39.8 µM [activator, single point]
42 | CC(NCC(=O)NC(=O)NC1CCCC1)c1ccc(Cl)cc1Cl (stereo not given) | inactive
43 | CCOC(=O)CNC(=O)CSc1ccc2nnc(-c3cccnc3)n2n1 | active: 17.8 µM
44 | CCc1nnc(SCC(=O)Nc2ccc(OC)c(OC)c2)c2cc3occc3n12 | inconclusive: 25.1 µM [activator, partial curve]

Row | Compound | Potency
45 | COc1cc(C2C(C(=O)c3ccc(C)o3)=C(O)C(=O)N2CCN2CCOCC2)ccc1OCCC(C)C (stereo not given) | active: 15.8 µM
46 | Cc1ccc(-n2c(=O)c3ccc(C(=O)NCc4ccccc4Cl)cc3n(Cc3cccc(F)c3)c2=O)cc1 | active: 31.6 µM
47 | Cc1cc2cc(CNC(=O)Cc3ccc([N+](=O)[O-])cc3)ccc2n1C | inconclusive: 39.8 µM [activator, single point]
48 | O=C(Nc1nnc(S(=O)(=O)N2CCOCC2)s1)c1ccccc1Cl | inconclusive: 31.6 µM [activator, partial curve]
49 | O=C(Cn1nc(-c2cccc([N+](=O)[O-])c2)c2ccccc2c1=O)NCC1CCCO1 (stereo not given) | inconclusive: 20 µM [activator, partial curve]
50 | O=C(CCCCCn1c(=S)[nH]c2ccc(N3CCOCC3)cc2c1=O)NCc1cccc(Cl)c1 | inconclusive: 31.6 µM [activator, single point]
51 | Cc1ccc(C(=O)N2CC3(C)CN(C(=O)c4ccc(C)cc4)CC(C)(C2)C3=O)cc1 | inactive
52 | COc1cccc(CC2(CO)CCCN(Cc3cc(F)ccc3-n3cccn3)C2)c1 (stereo not given) | inactive
53 | CCOc1ccccc1NC(=O)Cn1cc(C(=O)c2ccc(Cl)cc2)c(=O)c2ccc(C)nc21 | inconclusive: 35.5 µM [activator, single point]
54 | COc1ccccc1-c1nc(SCC(=O)Nc2cc(C)on2)c2c(=O)n(C)c(=O)n(C)c2n1 | inconclusive: 11.2 µM [activator, partial curve]
55 | CC(C)(C)c1ccc(C(=O)Nc2ccc(F)cc2)s1 | active: 31.6 µM
56 | CC(C)CCNC(=O)[C@@H](c1ccccc1)N1Cc2ccccc2C1=O | inactive
57 | CCN(CC)c1ccc(/C=C/c2cc(-c3ccccc3)c3ccccc3n2)cc1 | inconclusive: 28.2 µM [activator, partial curve]
58 | CCOc1ccc(CNS(=O)(=O)c2cc(CN3C(=O)c4cccnc4C3=O)ccc2OC)cc1 | inconclusive: 15.8 µM [activator, partial curve]
59 | CC1=NOC(=O)/C1=C\c1ccc(-c2ccccc2Br)o1 | active: 17.8 µM
60 | Fc1ccc(-c2cc(-c3ccccc3)c3c(n2)-c2cc(F)ccc2OC3)cc1 | inactive
61 | Cc1cccc(NCC(=O)c2c(N)n(C)c(=O)n(C)c2=O)c1C | inconclusive: 12.6 µM [activator, partial curve]
62 | COCc1cc(C)nc(SCC(=O)Nc2cccc(C)c2C)c1C#N | inconclusive: 39.8 µM [activator, single point]
63 | Cc1nn(Cc2ccc(F)cc2)c2sc(C(=O)Nc3nccs3)cc12 | inconclusive: 39.8 µM [activator, single point]
64 | O=C(CSc1nnc(-c2cccs2)n1-c1ccccc1)Nc1ccccc1 | inconclusive: 25.1 µM [activator, partial curve]
65 | Cc1ccc(OCC(=O)Nc2ccccc2C(=O)OCc2cc(=O)n3ccsc3n2)cc1C | inconclusive: 35.5 µM [activator, single point]
